# Reference: a collection of fitness landscapes (doi:10.1016/j.celrep.2020.107928)
# The full ranking holds about 81,000 sequences; the median of “one-hybrid fitness for binding parS DNA” is about -0.17, and the highest 2% start at about 0.51. This is one part of the list.
# B1: Caulobacter ParB omega fusion; a variant is named by its letters at X, in order, B8GW30 (parent)
# chain: MESVVVGEPGMSEGRRGLGRGLSALLGEVDAAPAQAPGEQLGGSREAPIEILQRNPDQPRRTFREEDLEDLSNSIREKGVLQPILVRPSPDTAGEYQIVAGERAWRAAQRAGLKTVPIMVRELDDLAVLEIGIIENVQRADLNVLEEALSYKVLMEKFERTQENIAQTIGKSXSHVANXMRLLXLPDEVQSYLVSGELTAXHARAIAAAADPVALAKQIIEGGLSVRETEALARKAPNLSAGKSKGGRPPRVKDTDTQALESDLSSVLGLDVSIDHRGSTGTLTITYATLEQLDDLCNRLTRGI
# Variants of: B1
# Test: one-hybrid fitness for binding parS DNA (scaled: cognate 1, non-cognate 0); higher = stronger binding
# Conditions: with parS DNA site
# In short: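 Pre- and post-selection plasmids were Illumina-sequenced, three replicate libraries were pooled, and any variant with under 10 reads was removed. The libraries were Caulobacter ParB with four specificity codons randomised, selected in E. coli USO through a HIS3 reporter whose site is 19 bp from the promoter. Cells grew 48 hours at 37°C on M9 without histidine, with 0.1 mM IPTG and 5 mM 3-AT. Fitness is the log change in variant-to-wild-type read ratio, rescaled against cognate and non-cognate.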
row,Variant,one-hybrid fitness for binding parS DNA
1,VMDC,≤ 0.2
2,DKPV,≤ 0.2
3,HDWL,≤ 0.2
4,KWAD,≤ 0.2
5,KTSR,≤ 0.2
6,MPSR,≤ 0.2
7,PLGN,≤ 0.2
8,NMLA,≤ 0.2
9,PMRS,≤ 0.2
10,QSMH,≤ 0.2
11,HGAW,≤ 0.2
12,TYVA,≤ 0.2
13,GNWS,≤ 0.2
14,PGNR,≤ 0.2
15,QRNM,≤ 0.2
16,WMPV,≤ 0.2
17,WQDT,≤ 0.2
18,HPHT,≤ 0.2
19,PVYL,≤ 0.2
20,TGYM,≤ 0.2
21,LTSV,≤ 0.2
22,FYHG,≤ 0.2
23,CPPR,≤ 0.2
24,GRRR,≤ 0.2
25,WRLH,≤ 0.2

row,Variant,one-hybrid fitness for binding parS DNA
1,NMEG,≤ 0.2
2,VHCT,≤ 0.2
3,WSNS,≤ 0.2
4,NWWT,≤ 0.2
5,PKNL,≤ 0.2
6,IKHT,≤ 0.2
7,CATV,≤ 0.2
8,MNQA,0.233
9,DPIK,≤ 0.2
10,FYPS,≤ 0.2
11,HDQL,≤ 0.2
12,KFKF,≤ 0.2
13,CVMK,≤ 0.2
14,AQKL,≤ 0.2
15,VPDI,≤ 0.2
16,LNSP,≤ 0.2
17,AGKW,≤ 0.2
18,VRTI,≤ 0.2
19,RHTA,0.516
20,PIAC,≤ 0.2
21,QKSG,≤ 0.2
22,RVLL,≤ 0.2
23,PYPW,≤ 0.2
24,LMCM,≤ 0.2
25,DYHS,≤ 0.2

row,Variant,one-hybrid fitness for binding parS DNA
1,RTAH,0.21
2,YDPG,≤ 0.2
3,NHQF,≤ 0.2
4,SRQE,≤ 0.2
5,QVAY,≤ 0.2
6,IIII,≤ 0.2
7,SDHG,≤ 0.2
8,GCRL,≤ 0.2
9,TTET,≤ 0.2
10,LMAT,≤ 0.2
11,PWNK,≤ 0.2
12,PFTR,≤ 0.2
13,NHAP,0.214
14,YEKF,≤ 0.2
15,YTNF,≤ 0.2
16,NSVC,≤ 0.2
17,SKHS,≤ 0.2
18,PKRY,≤ 0.2
19,EISF,≤ 0.2
20,FDHT,≤ 0.2
21,LMPW,≤ 0.2
22,IPIA,≤ 0.2
23,RSYH,≤ 0.2
24,NSPL,≤ 0.2
25,MLRW,≤ 0.2

row,Variant,one-hybrid fitness for binding parS DNA
1,MLTG,≤ 0.2
2,LDCS,≤ 0.2
3,TNIE,≤ 0.2
4,TLNP,≤ 0.2
5,VSFQ,≤ 0.2
6,KVRE,≤ 0.2
7,QNCL,≤ 0.2
8,GPTE,≤ 0.2
9,QWPI,≤ 0.2
10,WNVS,≤ 0.2
11,RHQP,≤ 0.2
12,GKVC,≤ 0.2
13,SEAS,≤ 0.2
14,LNQP,≤ 0.2
15,MWDV,≤ 0.2
16,QKCT,≤ 0.2
17,QLYC,≤ 0.2
18,SDTE,≤ 0.2
19,YGTT,≤ 0.2
20,ATAK,≤ 0.2
21,TSDN,≤ 0.2
22,RVVQ,≤ 0.2
23,MNLV,≤ 0.2
24,TADW,≤ 0.2
25,FHPG,≤ 0.2

row,Variant,one-hybrid fitness for binding parS DNA
1,EEHA,≤ 0.2
2,HYGC,≤ 0.2
3,HGRS,≤ 0.2
4,MEKR,≤ 0.2
5,IEAG,≤ 0.2
6,LWSR,≤ 0.2
7,RGFS,0.584
8,KTRQ,≤ 0.2
9,ITSL,≤ 0.2
10,NMGE,≤ 0.2
11,QKTP,≤ 0.2
12,GLPL,≤ 0.2
13,LCEG,≤ 0.2
14,TFLT,≤ 0.2
15,FTPL,≤ 0.2
16,MRCS,≤ 0.2
17,RYML,≤ 0.2
18,IICL,≤ 0.2
19,TMWE,≤ 0.2
20,PSWS,≤ 0.2
21,QYQW,≤ 0.2
22,AGFC,≤ 0.2
23,SFCW,≤ 0.2
24,RLAS,1
25,AVKK,≤ 0.2

row,Variant,one-hybrid fitness for binding parS DNA
1,QRIS,≤ 0.2
2,PTTD,≤ 0.2
3,QPAN,≤ 0.2
4,PYDM,≤ 0.2
5,SISV,≤ 0.2
6,ACIY,≤ 0.2
7,ALYR,≤ 0.2
8,RSGN,0.46
9,DSAD,≤ 0.2
10,TKTY,≤ 0.2
11,CVGC,≤ 0.2
12,PDEM,≤ 0.2
13,KPRH,≤ 0.2
14,GATW,≤ 0.2
15,QYMH,≤ 0.2
16,FEKS,≤ 0.2
17,THMK,≤ 0.2
18,VPPE,≤ 0.2
19,DKNH,≤ 0.2
20,PSAT,≤ 0.2
21,WSHY,≤ 0.2
22,VVRE,≤ 0.2
23,GVPP,≤ 0.2
24,HAHS,≤ 0.2
25,RKWR,≤ 0.2

row,Variant,one-hybrid fitness for binding parS DNA
1,HSYR,≤ 0.2
2,RNPY,≤ 0.2
3,EKTH,≤ 0.2
4,CDSR,≤ 0.2
5,QEPG,≤ 0.2
6,PASS,≤ 0.2
7,PGET,≤ 0.2
8,KNLS,≤ 0.2
9,VAYS,≤ 0.2
10,DFPR,≤ 0.2
11,KTCG,≤ 0.2
12,RVVD,≤ 0.2
13,TTKV,≤ 0.2
14,LCEE,≤ 0.2
15,PCVN,≤ 0.2
16,PSAR,≤ 0.2
17,VQHR,≤ 0.2
18,LGHI,≤ 0.2
19,VNLH,≤ 0.2
20,VATV,≤ 0.2
21,LQYS,≤ 0.2
22,YPKY,≤ 0.2
23,DTTE,≤ 0.2
24,PQIW,≤ 0.2
25,GTPG,≤ 0.2

row,Variant,one-hybrid fitness for binding parS DNA
1,YGYI,≤ 0.2
2,ESKN,≤ 0.2
3,AVHT,≤ 0.2
4,KGDK,≤ 0.2
5,MSWT,≤ 0.2
6,VTRN,≤ 0.2
7,WTNR,≤ 0.2
8,EEYG,≤ 0.2
9,PTSC,≤ 0.2
10,RGEI,≤ 0.2
11,CPQL,≤ 0.2
12,QLSQ,≤ 0.2
13,CSNF,≤ 0.2
14,TDVL,≤ 0.2
15,ERIG,≤ 0.2
16,QTAE,≤ 0.2
17,RNVF,≤ 0.2
18,IMKE,≤ 0.2
19,QCPM,≤ 0.2
20,PDPW,≤ 0.2
